Biological target: T1, MAdCAM-Ig fusion protein (human, UniProt Q13477 19-317)
T1 construct: also called Hu-MAdCAM-Ig; MAdCAM-1
T1 sequence (looked up): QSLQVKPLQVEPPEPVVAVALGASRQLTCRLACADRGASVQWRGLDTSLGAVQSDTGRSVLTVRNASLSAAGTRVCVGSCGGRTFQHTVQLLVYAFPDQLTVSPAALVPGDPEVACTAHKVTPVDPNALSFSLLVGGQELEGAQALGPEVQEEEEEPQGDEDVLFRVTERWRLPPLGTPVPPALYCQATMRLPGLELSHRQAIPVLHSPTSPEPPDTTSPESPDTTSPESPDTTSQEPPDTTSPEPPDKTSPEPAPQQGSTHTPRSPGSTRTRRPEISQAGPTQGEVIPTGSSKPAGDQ
Assay: static cell adhesion assay; RPMI8866 cells on immobilised MAdCAM or cV2 92TH023 in buffer with a high concentration of MgCl2
Conditions: one partner purified

B1: integrin α4β7 expressed on the surface of RPMI8866 cells (receptor)
chain 1: not shown
chain 2: ELDAKIPSTGDATEWRNPHLSMLGSCQPAPSCQKCILSHPSCAWCKQLNFTASGEAEARRCARREELLARGCPLEELEEPRGQQEVLQDQPLSQGARGEGATQLAPQRVRVTLRPGEPQQLQVRFLRAEGYPVDLYYLMDLSYSMKDDLERVRQLGHALLVRLQEVTHSVRIGFGSFVDKTVLPFVSTVPSKLRHPCPTRLERCQSPFSFHHVLSLTGDAQAFEREVGRQSVSGNLDSPEGGFDAILQAALCQEQIGWRNVSRLLVFTSDDTFHTAGDGKLGGIFMPSDGHCHLDSNGLYSRSTEFDYPSVGQVAQALSAANIQPIFAVTSAALPVYQELSKLIPKSAVGELSEDSSNVVQLIMDAYNSLSSTVTLEHSSLPPGVHISYESQCEGPEKREGKAEDRGQCNHVRINQTVTFWVSLQATHCLPEPHLLRLRALGFSEELIVELHTLCDCNCSDTQPQAPHCSDGQGHLQCGVCSCAPGRLGRLCECSVAELSSPDLESGCRAPNGTGPLCSGKGHCQCGRCSCSGQSSGHLCECDDASCERHEGILCGGFGRCQCGVCHCHANRTGRACECSGDMDSCISPEGGLCSGHGRCKCNRCQCLDGYYGALCDQCPGCKTPCERHRDCAECGAFRTGPLATNCSTACAHTNVTLALAPILDDGWCKERTLDNQLFFFLVEDDARGTVVLRVRPQEKGADHTQAIVLGCVGGIVAVGLGLVLAYRLSVEIYDRREYSRFEKEQQQLNWKQDSNPLYKSAITTTINPRFQEADSPTL
notes: also called cell-surface expressed α4β7
  fold reduction of adhesion in MgCl2 against MnCl2: ~5 fold
